According to PubChem BioAssay AID504332 (National Center for Advancing Translational Sciences (NCATS), 2011):
Out of some 350,000 compounds screened, about 31,000 (8.9%) were called active. The shares of active, inactive and inconclusive entries below differ from those in the screen. Calls follow the shape of the dose curve; as a rule, active = well fitted inhibition curve with a large enough effect; inconclusive = small, poorly fitted or top-dose-only effect; inactive = no such curve, though single readings can be large or run the other way. Where the call is inconclusive, the potency comes from a doubtful curve fit.
% is scaled to controls: 0 for no effect and ±100 for the full control effect; potency is read from the fitted curve at half-maximal effect; tags tell the direction and shape of the fitted curve.
Also: nearly all actives have a fitted effect of over 75% in size.

These compounds were tested against Histone-lysine N-methyltransferase EHMT2 (Homo sapiens) (UniProt Q96KQ7) (assay: qHTS Assay for Inhibitors of Histone Lysine Methyltransferase G9a). Details: G9a H3K9 monomethylation, AlphaScreen, 2 h; activity, negative = inhibition: at 59 µM (top of the series) unless noted.
UniProt Q96KQ7, sequence (Q96KQ7 whole entry, looked up): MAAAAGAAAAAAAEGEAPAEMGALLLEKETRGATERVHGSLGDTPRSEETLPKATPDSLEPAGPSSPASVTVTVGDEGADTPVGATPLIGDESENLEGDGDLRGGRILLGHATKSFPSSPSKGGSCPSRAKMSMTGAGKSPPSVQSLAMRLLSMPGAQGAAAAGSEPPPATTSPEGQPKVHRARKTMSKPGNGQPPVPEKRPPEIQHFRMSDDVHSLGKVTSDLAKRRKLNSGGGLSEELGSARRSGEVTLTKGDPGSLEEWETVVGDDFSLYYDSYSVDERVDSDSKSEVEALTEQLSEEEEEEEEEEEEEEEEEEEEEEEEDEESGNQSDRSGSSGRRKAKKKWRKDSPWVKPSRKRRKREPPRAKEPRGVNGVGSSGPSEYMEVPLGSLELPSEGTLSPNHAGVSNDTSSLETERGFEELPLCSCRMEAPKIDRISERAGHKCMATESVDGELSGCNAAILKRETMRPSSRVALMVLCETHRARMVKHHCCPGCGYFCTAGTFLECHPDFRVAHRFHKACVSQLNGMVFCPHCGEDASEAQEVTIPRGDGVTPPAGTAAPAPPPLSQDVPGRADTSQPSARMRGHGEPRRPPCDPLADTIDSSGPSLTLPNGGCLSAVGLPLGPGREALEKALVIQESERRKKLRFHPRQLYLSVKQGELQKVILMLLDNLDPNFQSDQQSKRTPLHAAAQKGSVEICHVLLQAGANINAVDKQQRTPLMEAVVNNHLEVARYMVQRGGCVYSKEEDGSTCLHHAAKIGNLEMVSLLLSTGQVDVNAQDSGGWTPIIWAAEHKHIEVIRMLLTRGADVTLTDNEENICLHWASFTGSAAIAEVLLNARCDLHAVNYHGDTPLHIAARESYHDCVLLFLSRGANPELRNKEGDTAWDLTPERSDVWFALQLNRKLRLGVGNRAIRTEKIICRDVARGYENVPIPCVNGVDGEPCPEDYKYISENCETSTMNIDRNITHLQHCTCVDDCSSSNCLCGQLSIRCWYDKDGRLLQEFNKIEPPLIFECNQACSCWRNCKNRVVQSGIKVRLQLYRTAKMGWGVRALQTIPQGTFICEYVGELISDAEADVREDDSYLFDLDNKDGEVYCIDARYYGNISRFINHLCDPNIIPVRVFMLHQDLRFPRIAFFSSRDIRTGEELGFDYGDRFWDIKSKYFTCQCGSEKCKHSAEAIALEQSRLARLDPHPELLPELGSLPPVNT
How it was run: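 AlphaScreen detection with an anti-monomethyl H3K9 antibody quantified product after a 2 h room-temperature reaction containing 500 nM biotinylated H3K9 peptide, 20 µM SAM and 20 nM enzyme, which had been preincubated 15 min with compound.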
In the case of `Cc1nnc(SCC(=O)N(C2CCCCC2)C2CCS(=O)(=O)C2)n1C` (stereo not given), the Potency is reported as inconclusive: 3.16 µM [inhibitor, single point]. For `COC(=O)c1c(-c2cccs2)csc1NC(=O)COc1ccc(C)cc1`, the activity, negative = inhibition was inconclusive: -73.8% [inhibitor]. For `COc1ccc(N2CCN(c3ncccn3)CC2)cc1`, the Potency was inconclusive: 2.51 µM [inhibitor, partial curve, poor fit]. For `Cc1onc(-c2ccccc2)c1C(=O)Nc1sccc1C#N`, the Potency was inconclusive: 89.1 µM [inhibitor, single point]. In the case of `CCCCc1nnc(NC(=O)c2oc3ccccc3c2C)s1`, the Potency is reported as “inactive”. For `COc1cc2c(cc1OC)C(C)N(C(=O)c1cc3n(n1)C(C(F)(F)F)CC(c1ccco1)N3)CC2` (stereo not given), the Potency was active: 17.8 µM. With `O=C(CSc1ccc(-c2ccco2)nn1)NC1CCCCC1` the Potency was active: 44.7 µM. `CCC(CC)C1C(C#N)=C(N)SC(N)=C1C#N` was tested, and the Potency was inconclusive: 39.8 µM [inhibitor, single point]. With `CC(=O)n1cc([C@@H]2C=C(C(=O)O)O[C@H](OCc3ccc(CO)cc3)C2)c2ccccc21` the activity, negative = inhibition was inconclusive: -83% [inhibitor]. With `CC1CCCN(c2nc3ccccc3nc2C(C#N)S(=O)(=O)c2cccs2)C1` (stereo not given) the Potency was inconclusive: 2.82 µM [inhibitor, partial curve, poor fit]. With `Cc1cccc(CN(CC(=O)N/N=C/c2ccco2)S(=O)(=O)c2ccc(Cl)cc2)c1` the Potency was inconclusive: 89.1 µM [inhibitor, single point]. In the case of `CCOc1ccccc1NC(=O)C1CCC(CNc2c(N3CCOCC3)c(=O)c2=O)CC1` (stereo not given), the Potency is reported as “inactive”. For `O=C(c1cccc(F)c1)N1CCC2(CCCN(Cc3nccs3)C2)CC1`, the activity, negative = inhibition was inactive: 2.01% [at 12.7 µM]. With `CC(C)c1cc(CN2CCN(CCC#N)CC2)cc(C(C)C)c1O` the Potency was inconclusive: 79.4 µM [inhibitor, single point]. In the case of `Cc1ccc(CNC(=O)CN(C(=O)C2(C)CC(=O)N=C3C=CC=CN32)c2ccccc2)cc1` (stereo not given), the Potency is reported as “inactive”. In the case of `CC1CN(CCOc2ccccc2[N+](=O)[O-])CC(C)O1` (stereo not given), the Potency is reported as active: 10 µM. With `Cc1ccc(C(=O)CSc2nnc(Cn3nnc4ccccc43)n2C)cc1` the activity, negative = inhibition was inconclusive: -74.1% [inhibitor]. For `NC(CCCCCP(=O)(c1ccccc1)c1ccccc1)C(=O)O` (stereo not given), the Potency was inconclusive: 79.4 µM [inhibitor, single point]. `Cc1ccc(CONC(=O)c2ccc([N+](=O)[O-])cc2)cc1` was tested, and the activity, negative = inhibition was inactive: 46.3% [at 12.7 µM]. In the case of `CSc1ncccc1C(=O)OCC(=O)c1ccc(Br)s1`, the Potency is reported as “inactive”.
